Sequences and labels used below:
T1: UNK ZnF1-3 (human, UniProt Q9C0B0 31-174)
T1 sequence: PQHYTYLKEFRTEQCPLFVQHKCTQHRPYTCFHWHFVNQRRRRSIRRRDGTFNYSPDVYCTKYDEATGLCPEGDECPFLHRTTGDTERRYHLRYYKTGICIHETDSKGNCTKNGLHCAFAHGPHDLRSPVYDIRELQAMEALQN

B1: chr3:179287964:179287965:+_ENSG00000136518_ENST00000429709|hu_hu|hu_hu_hu_mus_True|58_68 (ssRNA)
RNA: GGGAGUUCUACAGUCCGACGAUCCUUGAGUGGUGAGAUGGCCUCCAUGUUCUCCCUGGGCACGCGGAGAGCAUUAGUAUCUAUGUAGUAGGUGGGCCCGCCCUGCUUGCCUUUGUCACCAUCAAUCUCCAUCAUUGUACUUCCCAACAGAGGAUUGAGCAUCA
B2: chr17:20919178:20919179:-_ENSG00000124422_ENST00000537526|hu_hu|FALSE|FALSE (ssRNA)
RNA: GGGAGUUCUACAGUCCGACGAUCGAGCACGUCCAGGGCCGCGAUGAGGAACUCGUGGGCGUCCUGCUGCUCGUAGCCUGCUAGGUGCCUCGCGUGGGUCCACACCAGGUGCAGCAACUUAUACGGGAUGUGAGGGGACCGGUGCAACAGAGGAUUGAGCAUCA
B3: chr3:9412954:9412955:+_ENSG00000134077_ENST00000452837|hu_hu|FALSE|FALSE (ssRNA)
RNA: GGGAGUUCUACAGUCCGACGAUCUGUUGAUACAUCCUCUUUGAUGGCUGGAUUUUCAUAAUAAUCUAAGAUAUGAGAAUCUAAAGCAUGGCUAGUGAACUCUUUUUUAACAUUUCUCUGAUCGAUUUUGACUUCUUGUCCAUUCAACAGAGGAUUGAGCAUCA
B4: chr15:12740188:12740189:-_ENSMUSG00000022195_ENSMUST00000057256|mus_mus|FALSE|FALSE (ssRNA)
RNA: GGGAGUUCUACAGUCCGACGAUCUCAGCGAAUAAAUAAAUAAAUCUCAUAUCAUCCAAACCCUUGUUGGGGAAAGAGAAAAAAAAAAAACCCCUCUUACAGAAUCAAAGGCAGCGAUGGGAAGCAAGGAAGAUAACAGACAGUCAACAGAGGAUUGAGCAUCA
B5: 54649049_54654472_1799_CDS_ENSG00000039123_ENST00000230640|human|control|control (ssRNA)
RNA: GGGAGUUCUACAGUCCGACGAUCUACAAUUCCUCUAUCAUCCAUUCCUCUCCUUCCAGCACGACCAGACAUCUGAAUGUAUUCACCAGAAGAAAUCCAUCGGAAAUCCUUCCCAUCAAAUUUGCGGGCAUUUGUAAAUAAAACCAACAGAGGAUUGAGCAUCA
B6: 10814327_10814447_6042_3pUTR_ENSMUSG00000024294_ENSMUST00000052838|mouse|control|control (ssRNA)
RNA: GGGAGUUCUACAGUCCGACGAUCGCUGUCCAUACUAUACAUAACAUAAAUGGCCCAGUGACAAAGAGAAAGCUGUAAGUCCCCAGCACUACAGAGACUUGACGGCUUCUCUCUCCUAAGCUAGUGUGCUCUGCUCUGCGUGGACAACAGAGGAUUGAGCAUCA

The other results are listed elsewhere or left out.

The experiment deals with T1, UNK ZnF1-3. In words: nsRBNS (natural sequence RNA bind-n-seq); RBNS binding buffer (assumed for nsRBNS): 25 mM Tris pH 7.5, 150 mM KCl, 3 mM MgCl2, 0.01% Triton X-100, 500 ug/ml BSA, 20 U/ml SUPERase-In, 4 C; UNK is unkempt and MSI1 is Musashi-1; names of the RNAs are library labels; protein concentration not given here; high values mean tight binding.
B1 registered a binding signal of 0.863 enrichment R.
Then B2, with 1 enrichment R; and B3, with 0.525 enrichment R.
B4 registered a binding signal of 2.15 enrichment R.
As to B5, the binding signal is 1.71 enrichment R.
The molecule B6 showed a binding signal of 1.23 enrichment R.

Source of the values: publication PMC12136788.
